Binding signal data for 14 molecules are collected here from article PMC12136788.

The labels stand for the following.
T1: UNK ZnF1-3 (human, UniProt Q9C0B0 31-174)
T1 sequence: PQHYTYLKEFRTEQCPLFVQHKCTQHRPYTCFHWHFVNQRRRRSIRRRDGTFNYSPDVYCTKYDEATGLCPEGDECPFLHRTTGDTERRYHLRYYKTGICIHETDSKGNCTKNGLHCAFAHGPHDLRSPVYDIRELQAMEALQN

B1: chr8:95500983:95500984:-_ENSG00000164944_ENST00000437199|hu_hu|hu_hu_hu_mus_True|8_78 (ssRNA)
RNA: GGGAGUUCUACAGUCCGACGAUCAGAACACAUCUAUCGAGUAAAGGACCGUACAUGGACGACCUCUCCACUGCCUCCACUAACAAACUUUCCUCUCGAGCCUCCACUGCCGCUAUUUGUACUAGCCCCAGGAAGGUCCAGGCCCAACAGAGGAUUGAGCAUCA
B2: chr14:78183846:78183847:+_ENSG00000119705_ENST00000557342|hu_hu|hu_hu_hu_mus_False|1_58 (ssRNA)
RNA: GGGAGUUCUACAGUCCGACGAUCUCUCAGAAAUCUUUCUUCAUCAGAUGUUUGAGCUCCGUGCAAAGCCUUUGCUCUUCUAGUGUGAACGUGGAUCUAUGGGAGGGAAAGCACUGUCAGAAAAGGUAAUUUUUUUUUCCGAAGCAACAGAGGAUUGAGCAUCA
B3: chr4:95690885:95690886:+_ENSMUSG00000028572_ENSMUST00000156910|mus_mus|mus_mus_mus_hu_False|28_88 (ssRNA)
RNA: GGGAGUUCUACAGUCCGACGAUCUUUAGAAAAUGUUAAAUACCAUGAGCAUGCUAAUUCAAAGGCUUAUUUUAUUUUACCAGAAGUCACAGGCAAGCAGACACUACAAACAUACAAGAAAAUGAAACUCAACAAUAUAACUGUCAACAGAGGAUUGAGCAUCA
B4: chr6:42629286:42629287:-_ENSMUSG00000036667_ENSMUST00000045054|mus_mus|FALSE|FALSE (ssRNA)
RNA: GGGAGUUCUACAGUCCGACGAUCAAAUAAAACCUUAUGACCAGUUACAACUACCCGACCCCGGCCAUAGCGAGCUGCAGCUAUCACACAGCCAUGGUAGGUAUCUAGCCCCAAAGGAAAAGCCAAAGACCCAUGAACUAGUAGCAACAGAGGAUUGAGCAUCA
B5: chr2:198351390:198351391:-_ENSG00000144381_ENST00000345042|hu_hu|hu_hu_hu_mus_False|88_108 (ssRNA)
RNA: GGGAGUUCUACAGUCCGACGAUCUCAUUCUCACUCUCCACAGAAAGGCUGCUUAACAACUCUCAUGUGGUGACACAGCGCUACAGUCCUGAUGCUCACAGAACAGUAGAGAUGCCUCAGUGAUUUAAGUUGAAAGCAGGACACCAACAGAGGAUUGAGCAUCA
B6: chr11:68312385:68312386:+_ENSG00000110075_ENST00000393800|hu_hu|FALSE|FALSE (ssRNA)
RNA: GGGAGUUCUACAGUCCGACGAUCCUUGCUGAAGAAACUGGCAAGUAGUGGAUUCAAAGGGGAAUCGUUUAGGAGGAAGCUAUAUAAUUUCAUUAGCAAGGAUUCAUCUUCUCCCAGUCUAUCAUUCAUCUGGGAGACAUCAGACAACAGAGGAUUGAGCAUCA
B7: chr17:2569311:2569312:+_ENSG00000007168_ENST00000397195|hu_hu|FALSE|FALSE (ssRNA)
RNA: GGGAGUUCUACAGUCCGACGAUCUGUCCAUUUUUUUUCCAAAAGACCAGCAUACUUUUUAUCUAAUUCUUCAUUCACAUCUAAUUCAGCUUCCUUUUUAAAAACUGAAUAUGCCUCUUCAUAGCCAUUUGAACGAAGAUAAUCCAACAGAGGAUUGAGCAUCA
B8: chr7:108212191:108212192:+_ENSG00000128590_ENST00000249356|hu_hu|FALSE|FALSE (ssRNA)
RNA: GGGAGUUCUACAGUCCGACGAUCGUUAUCAUUAAAAUGCAGAUUGCAAAGAUGAAAAUUGACUGGGGAGUAGCCAUUUCUAAUAUCCUGCACCCUCCGACUACUGCUGCUCCUCCACAGAGCUGAGGCGCUGGCGACCCUGACCAACAGAGGAUUGAGCAUCA
B9: chr16:87451109:87451110:-_ENSG00000140948_ENST00000268616|hu_mus|FALSE|FALSE (ssRNA)
RNA: GGGAGUUCUACAGUCCGACGAUCCUUCUCCAUGGUGAGCUGUUUAAAGACAGGGUAAUACUUGUGCAAGCGCAGCUUCCUAAGCCAGUCUAAAAUCCCAUUCUGCUCCUGGGGCUGAGGGGUCUGCAGACUGGAGGGCAUAAGCAACAGAGGAUUGAGCAUCA
B10: chr6:13786967:13786968:-_ENSMUSG00000048216_ENSMUST00000115492|mus_hu|FALSE|FALSE (ssRNA)
RNA: GGGAGUUCUACAGUCCGACGAUCGGAGGAUAAGGAUACAGCCUCAGUCAAGUCUCAUGAUCUAGAUAUAAGAACAAGGAAAAGAUAGAUCCAUACAUUUUACUGAAAAUAUAAUCCACAAAGAGAACUGAUCUGAUCUGCAGUCAACAGAGGAUUGAGCAUCA
B11: chr14:76420884:76420885:+_ENSG00000119685_ENST00000298832|hu_hu|motif|central (ssRNA)
RNA: GGGAGUUCUACAGUCCGACGAUCCUACUGCCACUUCUGCUCGAAGGCUUUGGGGACUUUGAGGCAGCAAAAAAAAAAAUACGGUGGACCCCUUGAAGUGCUGGUGGAUGCUUCACCCUCAAUCAUGCACCCAGGAGUGGUGAACAACAGAGGAUUGAGCAUCA
B12: 65871611_65871731_2547_CDS_ENSG00000116675_ENST00000371069|human|control|control (ssRNA)
RNA: GGGAGUUCUACAGUCCGACGAUCAGAGGAGUGGGGCAUGCUGGGCUGAGGCUUAGGCUGUGGCUGCUGCCAGUUGUAGGCACCUCCCUGCUGCCACCCGCCACCCAUAGGCUGGGGAGACGCCUUCUGUGGCGAGCUGAGAGGCAACAGAGGAUUGAGCAUCA
B13: chr1:109605286:109605287:-_ENSG00000197780_ENST00000461096|hu_mus|hu_hu_hu_mus_True|38_88 (ssRNA)
RNA: GGGAGUUCUACAGUCCGACGAUCAAGUUUCAGAGUAACAUUCAGUAUACUUAAAUCAUGCAAUUAUCCUUAUUAUAAGCUAAGCAGAAUAAUAAUUUAAUACAUAGAGUGAACUACACACAAAGCCUGAACCGCGAAAAUGGUCAACAGAGGAUUGAGCAUCA
B14: chr5:32599118:32599119:+_ENSG00000113387_ENST00000502897|hu_mus|FALSE|FALSE (ssRNA)
RNA: GGGAGUUCUACAGUCCGACGAUCAGAAAUACCUUUUCUUCCUGGUUUCAUUUCACCUUCUGAAUCCAUCCAAUAUUCUCUAAUAUCAAUUAGAAUUUUUCCUUUGAAGUCCCGAACACUGACAUAUCUCAUCUUUCCAAUCUGCAACAGAGGAUUGAGCAUCA

The list shows a part of the results.

This assay concerns the target T1, UNK ZnF1-3. Description: nsRBNS (natural sequence RNA bind-n-seq); RBNS binding buffer (assumed for nsRBNS): 25 mM Tris pH 7.5, 150 mM KCl, 3 mM MgCl2, 0.01% Triton X-100, 500 ug/ml BSA, 20 U/ml SUPERase-In, 4 C; UNK is unkempt and MSI1 is Musashi-1; names of the RNAs are library labels; protein concentration not given here; high values mean tight binding.
For the molecule B1, the binding signal was 1.46 enrichment R.

For the molecule B2, the binding signal is 1.09 enrichment R.

Consider B3, for which the binding signal was 2.19 enrichment R.

The molecule B4 yielded a binding signal of 1.07 enrichment R.

As for B5, the binding signal was 1.01 enrichment R.

In turn, B6 registered a binding signal of 1.14 enrichment R.

Take B7: the binding signal was found to be 0.494 enrichment R.

For B8, the binding signal was 1.2 enrichment R.

The molecule B9 registered a binding signal of 1.15 enrichment R.

Molecule B10 displayed a binding signal of 1.06 enrichment R.

B11 yielded a binding signal of 1.77 enrichment R.

B12 showed a binding signal of 1.26 enrichment R.

In turn, B13 yielded a binding signal of 0.61 enrichment R.

As to B14, the binding signal amounted to 0.615 enrichment R.
